From PMC6212790 come the findings set out here.

This is one part of the list. At the low end of the ranking the order means little.

This assay addresses T1, GST-Rok (full length) (UniProt O34857).
T1 sequence: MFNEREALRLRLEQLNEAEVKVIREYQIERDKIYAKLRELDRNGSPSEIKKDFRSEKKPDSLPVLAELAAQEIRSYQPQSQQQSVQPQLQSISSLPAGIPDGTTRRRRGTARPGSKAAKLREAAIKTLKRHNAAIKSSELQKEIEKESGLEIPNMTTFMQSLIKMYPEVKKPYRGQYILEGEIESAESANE
Nature of the assay: protein binding microarray.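 Further: rank score from −0.5 (least bound) to 0.5 (best bound).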 To be noted: Rok is a gene silencer of Bacillus subtilis; high values mean tight binding; most listed sequences are background and not binding sites; double strand, one strand shown.
AGGATGTA gave a binding signal of 0.212 E-score.
Then CTGTTTGA, with -0.0886 E-score.
Then CAACTAGC, with 0.203 E-score; and AAGGTAAC, with -0.0144 E-score; and GATTTGTA, with 0.249 E-score.
GGTTGAAC had a binding signal of -0.252 E-score.
Then CTCGGGTA, with 0.00435 E-score.
GTTCCTAA: the binding signal was -0.069 E-score.
In turn, AAGTCAAG showed a binding signal of -0.0478 E-score.
Then CGGTTGGA, with -0.0455 E-score.
Then ATTGTACC, with 0.239 E-score.
Sequence CTAACGCA gave a binding signal of 0.101 E-score.
In turn, CATGAGAG came in with a binding signal of 0.0593 E-score.
GAACGCTA showed a binding signal of 0.17 E-score.
AGCACGGA gave a binding signal of -0.0324 E-score.
Then AATCCAAC, with -2.47e-05 E-score.
Then CTGCCTAC, with -0.0226 E-score; and AAGCCGCG, with -0.227 E-score.
Then AGATTCGG, with 0.0606 E-score; and ACCCCCCA, with -0.367 E-score.
Sequence CTGAAGAC yielded a binding signal of -0.115 E-score.
Turning to ATCCTGTC, the binding signal was -0.0982 E-score.
Then AACTTATC, with 0.134 E-score; and ACCTGACA, with -0.0933 E-score; and CCTAGTCC, with -0.227 E-score.
Then GACGTATA, with 0.212 E-score; and CTTGGGGC, with -0.288 E-score.
Then GGAAATTA, with 0.238 E-score; and GAATTCCA, with 0.0902 E-score; and ACAAGCAT, with 0.0565 E-score.
For the sequence ATCCAACA, the binding signal was -0.0381 E-score.
Then AGGGTAAA, with 0.204 E-score; and AAATAGTT, with 0.4 E-score; and ATAGCAGG, with -0.1 E-score.
Then AGTCGCGA, with -0.177 E-score; and GCTTCTGA, with -0.00659 E-score.
Then AATTCGGT, with 0.158 E-score.
The sequence AAATGGTT registered a binding signal of 0.13 E-score.
Then AGACGAAC, with 0.0305 E-score; and GTACATGA, with 0.133 E-score.
Then ATATATAA, with 0.435 E-score.
Then GCTCAGGA, with -0.0732 E-score.
As to ATCGATAG, the binding signal was found to be 0.361 E-score.
Then AGCTTCGC, with -0.0601 E-score; and CTGCCACA, with -0.218 E-score.
Then AAACCGAT, with -0.0521 E-score.
Then GTTAAGTA, with 0.191 E-score; and TGTGAAAA, with 0.0537 E-score.
Sequence CGCATACA displayed a binding signal of 0.0781 E-score.
Then CCACCTTC, with -0.204 E-score; and AACAGTAA, with 0.294 E-score; and GAAGGCTA, with -0.119 E-score.
Then CTTAGTCA, with 0.256 E-score.
Then ATACTGAT, with 0.177 E-score; and AAATGACC, with -0.0224 E-score.
For the sequence AGCGATGC, the binding signal is -0.0603 E-score.
Then AATTATAT, with 0.407 E-score; and ATTGCCGC, with -0.142 E-score; and GTCTTGGA, with -0.061 E-score.
Then GCCTTACC, with -0.133 E-score.
Then CACTATTA, with 0.268 E-score.
Consider GGGACGGA, for which the binding signal is -0.315 E-score.
Then ATAGTATG, with 0.359 E-score; and CCGTGAAG, with -0.295 E-score.
Regarding GAAGAGAC, the binding signal worked out at 0.00857 E-score.
Then ACGCGTCA, with -0.0563 E-score.
Then CAGAAGTA, with 0.21 E-score; and CCGATAAA, with 0.134 E-score; and GTAATGTA, with 0.364 E-score.
Sequence AACGTTGA gave a binding signal of 0.0808 E-score.
Then ACCCACCA, with -0.0478 E-score; and ACACCCTA, with 0.0905 E-score; and GAAAACGC, with -0.0784 E-score.
Then AGAAATAT, with 0.301 E-score; and ATGCACTA, with 0.0388 E-score.
Then GTATAGAC, with -0.08 E-score; and GCAGTCTA, with 0.0175 E-score; and ATCCTTCC, with -0.158 E-score.
For TCCCTCAA, the binding signal is -0.171 E-score.
Then GTGAGGAA, with -0.165 E-score; and AGGCGGCA, with -0.267 E-score; and ACGGATCG, with 0.0827 E-score.
ATGTATCG showed a binding signal of 0.219 E-score.
Then AATGAGTA, with 0.209 E-score; and GCCCTAGA, with -0.178 E-score.
Turning to GGTGGTTA, the binding signal is -0.274 E-score.
Sequence CACACTCG returned a binding signal of 0.0219 E-score.
TATAATGA gave a binding signal of 0.298 E-score.
Then CATCTGCC, with -0.269 E-score; and AGGAACCA, with 0.0529 E-score.
Regarding AGCGAGTC, the binding signal is -0.257 E-score.
Then ACGCATGG, with -0.148 E-score; and CAGTTGGA, with -0.00562 E-score.
In turn, GGGCCACC gave a binding signal of -0.408 E-score.
Then AGAATCGC, with 0.165 E-score; and GCATTAAC, with 0.0561 E-score.
Then CGCCTCGC, with -0.421 E-score; and ACAAGTCG, with -0.122 E-score; and AAGTACCT, with 0.251 E-score.
Then ATTACGCG, with 0.133 E-score.
With ATTGGCTA, the binding signal is -0.0147 E-score.
Regarding CCGAAAGA, the binding signal was -0.112 E-score.
Then CTGTCTAA, with -0.0397 E-score; and AGTTAGCA, with 0.271 E-score.
GAACAATC gave a binding signal of -0.0573 E-score.
Then TAAGCATA, with 0.101 E-score.
Consider GACGTTTA, for which the binding signal is -0.0808 E-score.
Then ACTCGAAT, with -0.05 E-score; and GTCTACTA, with 0.261 E-score; and AACAGTTC, with 0.0688 E-score.
ACGACCCA returned a binding signal of -0.125 E-score.
With ACCTTACT, the binding signal stood at 0.101 E-score.
Then GGATCAAC, with 0.0189 E-score; and CTGATAGA, with 0.0934 E-score; and ATGAATAA, with 0.092 E-score.
Sequence CCAATACC returned a binding signal of -0.0159 E-score.
Then ATGCAACA, with -0.00939 E-score; and CTCGAGTC, with -0.273 E-score; and AAAGTACA, with 0.364 E-score.
Then AGCGCTCA, with -0.102 E-score.
Regarding ACACTCAA, the binding signal came to 0.0227 E-score.
Then CAACGCCA, with 0.136 E-score.
Then AAGCTCCC, with -0.304 E-score; and CCCTCCAA, with -0.376 E-score.
Then TAAACTCA, with 0.157 E-score; and ATAACTAT, with 0.407 E-score.
Consider CACTTTGA, for which the binding signal is -0.122 E-score.
Then CCCGCCGG, with -0.336 E-score; and GAGCTTGA, with -0.183 E-score.
ATTTTTCC gave a binding signal of 0.0722 E-score.
Then AGATGGCC, with -0.153 E-score; and AGTTTAGC, with 0.257 E-score.
Then TATAAACA, with 0.254 E-score; and ACCGACCG, with -0.221 E-score; and AACGGGCA, with -0.23 E-score.
GCACTTAC: the binding signal is -0.0436 E-score.
Consider CAGGTCTC, for which the binding signal was -0.204 E-score.
Then AACCGCGG, with -0.232 E-score; and GACTGTTA, with -0.107 E-score; and AGTGTACA, with 0.192 E-score.
Then GAGGCAAA, with -0.194 E-score; and AGCCGCAG, with -0.349 E-score; and AAATGCCA, with -0.0326 E-score.
Then CCTACCGA, with 0.101 E-score; and CCCCCGAA, with -0.428 E-score.
AATGTCAT: the binding signal came to 0.228 E-score.
Then GATTCGAA, with -0.0274 E-score; and ATCCATTC, with -0.196 E-score; and ATGATCTA, with 0.306 E-score.
CGTGAACA: the binding signal is 0.0255 E-score.
Then GCATCCGC, with -0.23 E-score.
Then CCCGAAGG, with -0.367 E-score; and AGACAAGG, with -0.0734 E-score; and ACGACGAC, with 0.0669 E-score.
Then GCGGCTAC, with -0.16 E-score; and TCAACTAA, with 0.109 E-score.
On to ATTATTGC, for which the binding signal was 0.154 E-score.
Then ACGTAGTC, with -0.303 E-score.
Then CCGGTCCA, with -0.198 E-score; and CTCCATGC, with -0.173 E-score; and AGGCCTTC, with -0.293 E-score.
The sequence GCGTCAAA registered a binding signal of -0.0978 E-score.
Then CTCTAAAC, with 0.0676 E-score; and CAGCTGGG, with -0.0951 E-score.
Then ACCAATCA, with 0.0371 E-score.
Then AGACCCGC, with -0.286 E-score; and ATATTTGC, with 0.285 E-score.
On to ACCTACAC, for which the binding signal came to 0.0853 E-score.
Then AACTACCT, with 0.416 E-score.
AAGACGAA came in with a binding signal of 0.134 E-score.
AAGGAACC: the binding signal is -0.152 E-score.
Then CCTGCGGC, with -0.36 E-score.
